Assay results as given in publication PMC12136788.
The list shows a part of the results.

T1: UNK ZnF1-3 (human, UniProt Q9C0B0 31-174)
T1 sequence: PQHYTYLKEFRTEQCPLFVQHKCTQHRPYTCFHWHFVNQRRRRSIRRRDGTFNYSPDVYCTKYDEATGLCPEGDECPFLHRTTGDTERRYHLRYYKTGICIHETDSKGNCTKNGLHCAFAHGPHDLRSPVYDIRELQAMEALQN

B1: chr5:56168760:56168761:+_ENSG00000095015_ENST00000399503|hu_hu|FALSE|FALSE (ssRNA)
RNA: GGGAGUUCUACAGUCCGACGAUCUCUAGAAAAUAAGCAGCCAACGAGUUCCAUUCCAAACACCUGAAUCCAUGGCUCAGCUAAAUCUUUGUAAGCAGGAGGGAUUUGCUGAGUUCCAUAAUGAGUAAGGUUAAAAUUGCUCUCCAACAGAGGAUUGAGCAUCA
B2: chr15:73134924:73134925:-_ENSMUSG00000022607_ENSMUST00000110036|mus_hu|FALSE|FALSE (ssRNA)
RNA: GGGAGUUCUACAGUCCGACGAUCAUCAAAUCUGUAGACUGGAGACAGGAUCUCAAAGAAUUUCAGAAUACUUUCUUCUCUAUUAAGGUUGGCAAAUUGUCUAAAUGUUUGUUGGAUCAGUUUUCUUAGUGUUUUGGCCUUGACCAACAGAGGAUUGAGCAUCA
B3: chr11:47074021:47074022:+_ENSG00000149179_ENST00000278460|hu_mus|motif|central (ssRNA)
RNA: GGGAGUUCUACAGUCCGACGAUCACCAUUUUUCCCUACAGUUCGGAAGCAUCUCCAGAAGGCCCGAAGGAAUGAUGCUCGGUUAUGAGGUGUGGCUUGUAUAAAGCUGAAUUCCCGGAAGAGAAUGUGAGUUCCUUGGCAUACCAACAGAGGAUUGAGCAUCA
B4: chr7:65705844:65705845:+_ENSG00000169902_ENST00000304842|hu_mus|hu_hu_hu_mus_False|88_108 (ssRNA)
RNA: GGGAGUUCUACAGUCCGACGAUCAAAAGGAUCUUUAUUACAUAAAUAAGGGGCUGGCUCCCCAUGUUUAACAAUGACCUCCAGAAGGAAGGCUUGCAUGGCAGAAUCUAGCACUUCAUCUGUGACACCCGCCUCAUCCAAGCGCAACAGAGGAUUGAGCAUCA
B5: chr1:87185206:87185207:+_ENSG00000097033_ENST00000482504|hu_hu|FALSE|FALSE (ssRNA)
RNA: GGGAGUUCUACAGUCCGACGAUCUGGGUUGUUUAUACGACUUGGAGCUUUUCUAUCCAGUUUCUCAUAAACAAAUUCUUCUAUCCUGGCAUUUGGAUUUGGCUGCAAUAACACUUCAGUUUGUUUCAUUAUUUUUUCUGUCCACAACAGAGGAUUGAGCAUCA
B6: 58038967_58039087_696_3pUTR_ENSMUSG00000024597_ENSMUST00000115366|mouse|control|control (ssRNA)
RNA: GGGAGUUCUACAGUCCGACGAUCGUGGCCGAAGGUGCGCAGGUAGUAGGUGUUGGUGUGGGUGUCAUAGUAGUACUGCUGGUGGUGUCCACUGCCACCCCCCGAGUGCAGGCUGCUGCCCUCGCUCAGCACCGUGUCCCCGCCCAACAGAGGAUUGAGCAUCA
B7: chr5:23948154:23948155:-_ENSMUSG00000028959_ENSMUST00000030800|mus_mus|FALSE|FALSE (ssRNA)
RNA: GGGAGUUCUACAGUCCGACGAUCCAAGGGUGCCACCCCUGCUUCCCGAGCCAGGAUCCUCUCAAGGCAGGGCAUAAAUUGCUGCUCCAGGGGCAUGUAGUUCAACCUCCCAAAGGGCAGGACCAACUUCUGUACCACCUUGCUCAACAGAGGAUUGAGCAUCA
B8: chr4:3761713:3761714:-_ENSMUSG00000028234_ENSMUST00000103009|mus_hu|FALSE|FALSE (ssRNA)
RNA: GGGAGUUCUACAGUCCGACGAUCCUCAACUCCUGGCUCAAUACUGAUGGAAGUAAUCUGCUUAACAAUCUCAGAAGGACUGUGCAAGUCAAUGAGUCGCUUGUGAAUUCUCAUCUGGAAACGAUCCCACGUCUUAGAACCUUCCAACAGAGGAUUGAGCAUCA
B9: 83250160_83251529_1244_CDS_ENSMUSG00000031715_ENSMUST00000043359|mouse|control|control (ssRNA)
RNA: GGGAGUUCUACAGUCCGACGAUCCCAGUUGAAUUUUUUGAACACAGACUUCUCUUUAAUAAGCAUUUCAUAAGAUGUGACACACACAUCCCACUCUCCUGGUAAUAAAACAUCCCUGACAAAUGCAGCUCUUUGCUCUUUAUCCAACAGAGGAUUGAGCAUCA
B10: chr10:62544473:62544474:+_ENSG00000170312_ENST00000395284|hu_hu|motif|central (ssRNA)
RNA: GGGAGUUCUACAGUCCGACGAUCUGUAGUUUUGUGUCUACCCUUAUACACAACUCCAUAGGUACCUUCUCCAAUUUUCUCGGUUUUGGUAUAAUCUUCCAUAGUUAGUCAAUGGGUAUGGUAGAUCCCGGCUUAUUAUUCCGCCAACAGAGGAUUGAGCAUCA
B11: chr3:176767854:176767855:-_ENSG00000177565_ENST00000430069|hu_hu|hu_hu_hu_mus_False|78_88 (ssRNA)
RNA: GGGAGUUCUACAGUCCGACGAUCGACAUCCUUGUUACUGGGCACGUCUUGCCCUCCUUCUCGUAUACAGUGUCUAAGCACGAGCUGCGUAGGGCCACUCGUGCUGUUCUCACUGAGGUUCCAGAUUCUUGCCGUGGAGUCUCCCAACAGAGGAUUGAGCAUCA
B12: chr6:40197388:40197389:+_ENSMUSG00000057716_ENSMUST00000061740|mus_mus|mus_mus_mus_hu_False|18_38 (ssRNA)
RNA: GGGAGUUCUACAGUCCGACGAUCGAGACACUGGGGUGGAUUUAUUCCACCUCUGUUUGGGUGCUAGCCACUAAGACUGUUAUUUUGGGAUUCAUGGCCUUGAAGAUCAAGAGGGAAGGGACGAGAAUGGAAAGAGUCAAGAGUCAACAGAGGAUUGAGCAUCA
B13: chr10:121026873:121026874:-_ENSMUSG00000034667_ENSMUST00000039810|mus_mus|FALSE|FALSE (ssRNA)
RNA: GGGAGUUCUACAGUCCGACGAUCUUCUCUUAUAGAAUACACAUCGGCAUUGAAAAAUUUAAAGAAAUGUAAUGGCUAUCUAUGAAAGAUUACGUUUUGAUUGUUACCCCACAGCUCAUGUGUCUGCAUACACAGAACCAAACACAACAGAGGAUUGAGCAUCA
B14: 100453122_100453242_2085_CDS_ENSG00000111647_ENST00000279907|human|control|control (ssRNA)
RNA: GGGAGUUCUACAGUCCGACGAUCGGGGAAGCUGGUAUAUGUUUUACUAAAAAAAUCACAAUCUUUAAAGUCUUGAAACAAAGCUUCUAGGUCAGAAUGUCGACAGUUUGGACAGUGCCUUGUAUUUGUGGCAAUCAUUUCAGACAACAGAGGAUUGAGCAUCA
B15: chr4:76721835:76721836:+_ENSG00000138768_ENST00000264904|hu_mus|hu_hu_hu_mus_True|18_48 (ssRNA)
RNA: GGGAGUUCUACAGUCCGACGAUCGUUUGGCUGGGGUUUCUGAGACGCUCUGGAAUAUAACUCAUGUUUGCUAAUAAAUCCUAGUUUUCUAUGAAAUUUCUCUUUGCCAAUCCUCUUUCAAUCAGUUUGCUUUAGUUUCUCUUUCAACAGAGGAUUGAGCAUCA
B16: chrX:140365796:140365797:-_ENSMUSG00000031285_ENSMUST00000033642|mus_mus|mus_mus_mus_hu_False|48_78 (ssRNA)
RNA: GGGAGUUCUACAGUCCGACGAUCCUUCUCAUUACUCAGUGCCUGCAAGGUUCUGGUUCUGUAGAAGCUACAGUGGGCGCUGUGAGUGGGACUUGGAAACCCAUUCAUCCGGGAGCCUCGCAUGUUCCUGGAUGUCUUAUCUCUCAACAGAGGAUUGAGCAUCA
B17: chr14:31813938:31813939:-_ENSMUSG00000021917_ENSMUST00000162092|perfect_dup|FALSE|FALSE (ssRNA)
RNA: GGGAGUUCUACAGUCCGACGAUCAACUAUAUAGACAGUCCACCCGAACUGUUCAGCCACGUACCCGUAGAUAAAUCCAACUAUUGCAGAAAAAAGAAUAAUUCCCUGAAACAUCUGUUCAGCUAGCUUCUGGCCCUUGUAAUCCAACAGAGGAUUGAGCAUCA
B18: chr1:109605286:109605287:-_ENSG00000197780_ENST00000461096|hu_mus|hu_hu_hu_mus_True|58_88 (ssRNA)
RNA: GGGAGUUCUACAGUCCGACGAUCAAGUUUCAGAGUAACAUUCAGUAUACUUAAAUCAUGCAAUUAUCCUUAUUAUAAACUAAGGGCAAUAAUAAUUUAAUACCGUAAGUGAACUACACACAAAGCCUGAACCGCGAAAAUGGUCAACAGAGGAUUGAGCAUCA
B19: chr1:165697146:165697147:-_ENSG00000143183_ENST00000464650|hu_hu|FALSE|FALSE (ssRNA)
RNA: GGGAGUUCUACAGUCCGACGAUCUUGCUGGCUGCCAUUUUCACUCUAAUCAUACCCAAAAGGCUUAGAAAUAAUUCAAAACUAGAAAGAGGCCCAAGUAGUAAGGCUACCUAUGGCUCUUGCUACAAAACAGUUGCCAGUCUGCAACAGAGGAUUGAGCAUCA
B20: chr4:52453130:52453131:+_ENSMUSG00000028312_ENSMUST00000117280|mus_mus|FALSE|FALSE (ssRNA)
RNA: GGGAGUUCUACAGUCCGACGAUCUCCUCUGUGCAUAGGACUUGAAUCCUUCGAGAAUGAUUGAUUUAACAUACAUUUUCUAAACUGUCUUGGGUUAGUAAGCCUGUUAGGCAACAAGCUACAAGUCACGUCUGUACUCAGGCGCAACAGAGGAUUGAGCAUCA
B21: chr2:202488911:202488912:-_ENSG00000155755_ENST00000286196|hu_mus|hu_hu_hu_mus_False|1_28 (ssRNA)
RNA: GGGAGUUCUACAGUCCGACGAUCAUUGAAACAUUUUUCAUAAUCUCCAGUAGCAUUUCAGCAUUAUGUAACAAAAGCUCAAUUGUAAAUACAUGUAUCUUAUAAAAAUAAAAAUACAAACACGAGUGGGGAGCGCACAAAUACCAACAGAGGAUUGAGCAUCA
B22: chr2:24647629:24647630:-_ENSMUSG00000036893_ENSMUST00000134775|mus_hu|FALSE|FALSE (ssRNA)
RNA: GGGAGUUCUACAGUCCGACGAUCCCGGCACUUGGGGGAGCCGCAGCGGCAGCUGAAGAGCUUGCCUUUGAUGUCCCAGAAGCGCUCUCCAUAGUCAAACCCGAGCUGCUCGCCGGCCUCGAUCAGGCGGGUGCUGAAGAAGGCCAACAGAGGAUUGAGCAUCA

What follows are binders tested against T1, UNK ZnF1-3 (assay: nsRBNS (natural sequence RNA bind-n-seq); RBNS binding buffer (assumed for nsRBNS): 25 mM Tris pH 7.5, 150 mM KCl, 3 mM MgCl2, 0.01% Triton X-100, 500 ug/ml BSA, 20 U/ml SUPERase-In, 4 C; UNK is unkempt and MSI1 is Musashi-1; names of the RNAs are library labels; protein concentration not given here; high values mean tight binding).

Question: For B1, which binding signal is on record?
Answer: 1.28 enrichment R

Question: How did the binding signal turn out when B2 was run?
Answer: 1.75 enrichment R

Question: B3 was tested. Which binding signal did it give?
Answer: 1.36 enrichment R

Question: How did the binding signal turn out when B4 was run?
Answer: 0.869 enrichment R

Question: For B5, which binding signal is on record?
Answer: 0.414 enrichment R

Question: B6 was tested. Which binding signal did it give?
Answer: 0.456 enrichment R

Question: B7 was tested. Which binding signal did it give?
Answer: 1.02 enrichment R

Question: For B8, which binding signal is on record?
Answer: 1.48 enrichment R

Question: For B9, which binding signal is on record?
Answer: 1.09 enrichment R

Question: Which binding signal does the source give for B10 here?
Answer: 0.303 enrichment R

Question: With B11 as the binder, how does the binding signal read?
Answer: 0.338 enrichment R

Question: For B12, which binding signal is on record?
Answer: 1.51 enrichment R

Question: B13 was tested. Which binding signal did it give?
Answer: 1.4 enrichment R

Question: Which binding signal does the source give for B14 here?
Answer: 1.02 enrichment R

Question: With B15 as the binder, how does the binding signal read?
Answer: 0.478 enrichment R

Question: With B16 as the binder, how does the binding signal read?
Answer: 0.406 enrichment R

Question: Which binding signal does the source give for B17 here?
Answer: 1.36 enrichment R

Question: With B18 as the binder, how does the binding signal read?
Answer: 0.704 enrichment R

Question: Which binding signal does the source give for B19 here?
Answer: 1.19 enrichment R

Question: How did the binding signal turn out when B20 was run?
Answer: 0.61 enrichment R

Question: For B21, which binding signal is on record?
Answer: 1.7 enrichment R

Question: Which binding signal does the source give for B22 here?
Answer: 0.952 enrichment R
